# Measured values: the supplement of paper PMC8728848
# Some of the results follow.
# B1: Gal 2 (Canis lupus) (protein)
# chain: MSGKFEVMNMDMKLGGTLKIKGKIAGDADGFVINLGQGSDKLNLHFNPRFHESVIVCNSRNWGQEQRDKHMCFSPGSEVKFTVTFENDGFKVKLPDGHQLTFPNRLGHSHLSYLGVQGGLKVSSFKIE
# Tests used:
# Assay in all cases: glycan array binding signal (z-score within array); higher = stronger binding
# Conditions in all cases: glycan notation: IUPAC condensed, linker removed
# [1] = biological target: Fuc(a1-3)[Gal(b1-4)]GlcNAc6S
# Procedure, shortened: (§1)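 The Consortium for Functional Glycomics database supplied 3228 glycan arrays, of which those lacking an available protein sequence were dropped. The binding signal, a within-array Z-score, was averaged across arrays of the same protein sequence and across linkers. Negative scores can be read as non-binding.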
# [2] = biological target: Fuc(a1-3)[Gal3S(b1-4)]GlcNAc
# Procedure, shortened: as §1
# [3] = biological target: Fuc(a1-3)[Gal3S(b1-4)]GlcNAc6S
# Procedure, shortened: as §1
# [4] = biological target: Fuc(a1-3)[GalNAc(b1-4)]GlcNAc
# Procedure, shortened: as §1
# [5] = biological target: Fuc(a1-4)GlcNAc
# Procedure, shortened: as §1
# [6] = biological target: Fuc(b1-3)GlcNAc
# Procedure, shortened: as §1
# [7] = biological target: Gal(a1-2)Gal
# Procedure, shortened: as §1
# [8] = biological target: Gal(a1-3)Gal
# Procedure, shortened: as §1
# [9] = biological target: Gal(a1-3)Gal(b1-3)GlcNAc
# Procedure, shortened: as §1
# [10] = biological target: Gal(a1-3)Gal(b1-3)GlcNAc(b1-2)Man(a1-3)[Gal(a1-3)Gal(b1-3)GlcNAc(b1-2)Man(a1-6)]Man(b1-4)GlcNAc(b1-4)GlcNAc
# Procedure, shortened: as §1
# [11] = biological target: Gal(a1-3)Gal(b1-3)GlcNAc(b1-3)GalNAc
# Procedure, shortened: as §1
# [12] = biological target: Gal(a1-3)Gal(b1-3)[Fuc(a1-4)]GlcNAc(b1-2)Man(a1-3)[Gal(a1-3)Gal(b1-3)[Fuc(a1-4)]GlcNAc(b1-2)Man(a1-6)]Man(b1-4)GlcNAc(b1-4)GlcNAc
# Procedure, shortened: as §1
# [13] = biological target: Gal(a1-3)Gal(b1-4)Glc
# Procedure, shortened: as §1
# [14] = biological target: Gal(a1-3)Gal(b1-4)GlcNAc
# Procedure, shortened: as §1
# [15] = biological target: Gal(a1-3)Gal(b1-4)GlcNAc(b1-3)GalNAc
# Procedure, shortened: as §1
# [16] = biological target: Gal(a1-3)Gal(b1-4)[Fuc(a1-3)]GlcNAc
# Procedure, shortened: as §1
# [17] = biological target: Gal(a1-3)Gal(b1-4)[Fuc(a1-3)]GlcNAc(b1-2)Man(a1-3)[Gal(a1-3)Gal(b1-4)[Fuc(a1-3)]GlcNAc(b1-2)Man(a1-6)]Man(b1-4)GlcNAc(b1-4)GlcNAc
# Procedure, shortened: as §1
# [18] = biological target: Gal(a1-3)GalNAc
# Procedure, shortened: as §1
# [19] = biological target: Gal(a1-3)[Gal(a1-4)]Gal(b1-4)GlcNAc
# Procedure, shortened: as §1
# [20] = biological target: Gal(a1-4)Gal(b1-3)GlcNAc(b1-2)Man(a1-3)[Gal(a1-4)Gal(b1-3)GlcNAc(b1-2)Man(a1-6)]Man(b1-4)GlcNAc(b1-4)GlcNAc
# Procedure, shortened: as §1
# [21] = biological target: Gal(a1-4)Gal(b1-4)Glc
# Procedure, shortened: as §1
# [22] = biological target: Gal(a1-4)Gal(b1-4)GlcNAc
# Procedure, shortened: as §1
# [23] = biological target: Gal(a1-4)Gal(b1-4)GlcNAc(b1-2)Man(a1-3)[Gal(a1-4)Gal(b1-4)GlcNAc(b1-2)Man(a1-6)]Man(b1-4)GlcNAc(b1-4)GlcNAc
# Procedure, shortened: as §1
# [24] = biological target: Gal(a1-4)Gal(b1-4)GlcNAc(b1-3)Gal(b1-4)Glc
# Procedure, shortened: as §1
# [25] = biological target: Gal(a1-4)GlcNAc
# Procedure, shortened: as §1
# [26] = biological target: Gal(a1-6)Glc
# Procedure, shortened: as §1
# [27] = biological target: Gal(b1-2)Gal
# Procedure, shortened: as §1
# [28] = biological target: Gal(b1-3)Gal
# Procedure, shortened: as §1
# [29] = biological target: Gal(b1-3)Gal(b1-4)GlcNAc
# Procedure, shortened: as §1
# [30] = biological target: Gal(b1-3)Gal(b1-4)GlcNAc(b1-2)Man(a1-3)[Gal(b1-3)Gal(b1-4)GlcNAc(b1-2)Man(a1-6)]Man(b1-4)GlcNAc(b1-4)GlcNAc
# Procedure, shortened: as §1
# [31] = biological target: Gal(b1-3)GalNAc
# Procedure, shortened: as §1
# [32] = biological target: Gal(b1-3)GalNAc(a1-3)[Fuc(a1-2)]Gal(b1-4)Glc
# Procedure, shortened: as §1
# [33] = biological target: Gal(b1-3)GalNAc(a1-3)[Fuc(a1-2)]Gal(b1-4)GlcNAc
# Procedure, shortened: as §1
# [34] = biological target: Gal(b1-3)GalNAc(b1-3)Gal(a1-4)Gal(b1-4)Glc
# Procedure, shortened: as §1
# [35] = biological target: Gal(b1-3)GalNAc(b1-4)Gal(b1-4)Glc
# Procedure, shortened: as §1
# [36] = biological target: Gal(b1-3)GalNAc(b1-4)[Neu5Ac(a2-3)]Gal(b1-4)Glc
# Procedure, shortened: as §1
# [37] = biological target: Gal(b1-3)GlcNAc
# Procedure, shortened: as §1
# [38] = biological target: Gal(b1-3)GlcNAc(a1-6)Gal(b1-4)GlcNAc
# Procedure, shortened: as §1
# [39] = biological target: Gal(b1-3)GlcNAc(b1-2)Man(a1-3)[Gal(b1-3)GlcNAc(b1-2)Man(a1-6)]Man(b1-4)GlcNAc(b1-4)GlcNAc
# Procedure, shortened: as §1
# [40] = biological target: Gal(b1-3)GlcNAc(b1-2)Man(a1-3)[Gal(b1-3)GlcNAc(b1-2)Man(a1-6)]Man(b1-4)GlcNAc(b1-4)[Fuc(a1-6)]GlcNAc
# Procedure, shortened: as §1
# [41] = biological target: Gal(b1-3)GlcNAc(b1-2)[Gal(b1-3)GlcNAc(b1-6)]Man(a1-6)[Gal(b1-3)GlcNAc(b1-2)Man(a1-3)]Man(b1-4)GlcNAc(b1-4)GlcNAc
# Procedure, shortened: as §1
# [42] = biological target: Gal(b1-3)GlcNAc(b1-3)Gal(b1-3)GlcNAc
# Procedure, shortened: as §1
# [43] = biological target: Gal(b1-3)GlcNAc(b1-3)Gal(b1-4)Glc
# Procedure, shortened: as §1
# [44] = biological target: Gal(b1-3)GlcNAc(b1-3)Gal(b1-4)GlcNAc
# Procedure, shortened: as §1
# [45] = biological target: Gal(b1-3)GlcNAc(b1-3)Gal(b1-4)GlcNAc(b1-6)[Gal(b1-3)GlcNAc(b1-3)]Gal(b1-4)Glc
# Procedure, shortened: as §1
binder,measurement,setting,value
B1,glycan array binding signal (z-score),[1],0.199
same,glycan array binding signal (z-score),[2],-0.066
same,glycan array binding signal (z-score),[3],-0.271
same,glycan array binding signal (z-score),[4],-0.173
same,glycan array binding signal (z-score),[5],-0.012
same,glycan array binding signal (z-score),[6],-0.522
same,glycan array binding signal (z-score),[7],-0.059
same,glycan array binding signal (z-score),[8],-0.286
same,glycan array binding signal (z-score),[9],-0.168
same,glycan array binding signal (z-score),[10],0.082
same,glycan array binding signal (z-score),[11],0.146
same,glycan array binding signal (z-score),[12],0.336
same,glycan array binding signal (z-score),[13],-0.137
same,glycan array binding signal (z-score),[14],-0.21
same,glycan array binding signal (z-score),[15],-0.494
same,glycan array binding signal (z-score),[16],-0.137
same,glycan array binding signal (z-score),[17],0.339
same,glycan array binding signal (z-score),[18],0.043
same,glycan array binding signal (z-score),[19],-0.158
same,glycan array binding signal (z-score),[20],0.14
same,glycan array binding signal (z-score),[21],-0.074
same,glycan array binding signal (z-score),[22],-0.051
same,glycan array binding signal (z-score),[23],-0.3
same,glycan array binding signal (z-score),[24],-0.076
same,glycan array binding signal (z-score),[25],0.138
same,glycan array binding signal (z-score),[26],0.049
same,glycan array binding signal (z-score),[27],0.196
same,glycan array binding signal (z-score),[28],0.241
same,glycan array binding signal (z-score),[29],-0.367
same,glycan array binding signal (z-score),[30],-0.077
same,glycan array binding signal (z-score),[31],0.058
same,glycan array binding signal (z-score),[32],0.194
same,glycan array binding signal (z-score),[33],0.127
same,glycan array binding signal (z-score),[34],-0.368
same,glycan array binding signal (z-score),[35],0.024
same,glycan array binding signal (z-score),[36],0.025
same,glycan array binding signal (z-score),[37],-0.152
same,glycan array binding signal (z-score),[38],-0.21
same,glycan array binding signal (z-score),[39],0.14
same,glycan array binding signal (z-score),[40],0.051
same,glycan array binding signal (z-score),[41],0.045
same,glycan array binding signal (z-score),[42],-0.188
same,glycan array binding signal (z-score),[43],-0.105
same,glycan array binding signal (z-score),[44],-0.254
same,glycan array binding signal (z-score),[45],-0.509
